Results as given in US5670482A, “Neuropeptide Y antagonists” (Glaxo Wellcome Inc., priority 1992, dated 1997).
At least one peptide structure holds a part that was inferred or is arguable (an end, a ring closure or a residue). Positions of bridges follow the written chain, without caps; N, C: chain ends. Non-standard residues stand in square brackets, D forms with d. Residues, ends and D or L forms follow the SMILES beside them. Chains are numbered I, II in the order given. No end group written: not given here. *: point of attachment. ΔPro = O=C(O)[C@@H]1C=CCN1; Dap = NC[C@H](N)C(=O)O; X1 = Clc1cccc(Cl)c1C*; Aib = CC(C)(N)C(=O)O

Key:
[1] = target: NPY receptors in rat brain membranes; test: Radioreceptor binding assay (3H-NPY, rat brain membranes); settings: 37° C.
Description: Rat brain membranes were incubated with ^3 H-NPY up to equilibrium at 37° C. in the presence of several peptides at different concentrations and in a final volume of 1 ml. Non-specific binding was determined by adding 100 nM of cold NPY. At the end of the incubation period the samples were either filtered (GF/C filter), or 0.5 ml of cold incubation buffer was added and the tubes centrifuged at 15,000 g for 10 min. The supernatant was discarded and the pellet or filters resuspended and counted by liquid scintillation. Results were processed using a computer programme that calculated IC50, Kd, Bmax and Hill coefficient by linear regression. IC50 results where available are shown in column (a) of the Table.

[2] = tested on: Human erythroleukemic (HEL) cells; test: Intracellular calcium measurements in HEL cells (Fura-2); format: cell-based; settings: for HEL CELLS % Fluor (c): agonistic activity: fluorescence induced by 100 nM of the peptide; for IC50: antagonism of 5 nM NPY-induced calcium signal, read-out: HEL CELLS IC50 (d); for HEL CELLS % INHIB (b): inhibition of increase in HEL cell intracellular calcium induced by 5 nM NPY, 100 nM compound
Description: Human erythroleukemic (HEL) cells were loaded with Fura-2 (1 μM for 1 h), washed and then placed in a cuvette (5×10^5 cells in 2.5 ml) and excited simultaneously at 340 and 380 nm in a SLM spectrofluorometer. Fluorescence changes after the addition of NPY and/or peptide analogs were followed by recording emission at 510 nm. Calcium concentrations can be determined through a computer programme by using the ratio of fluorescence 340/380 nm. The agonistic activity of peptide analogs was tested by recording the fluorescence induced upon stimulation of the cells with 100 nM of the peptide and the antagonistic activity by observing the decrease in fluorescence induced by 5 nM NPY in the presence of the analog The results where available are indicated in column (c) of the Table.
The inhibition of the increase in the HEL cell intracellular calcium (induced by 5 nM NPY) achieved by 100 nM concentrations of each compound is shown in column (b) of the Table.

[3] = tested on: NPY-induced increase of perfusion pressure in isolated perfused rat kidney; test: Isolated perfused rat kidney preparation; settings: antagonist infused during 5 min, read-out: IC50 for the inhibition of the NPY-induced increase of perfusion pressure
Description: Male CD rats (200-400 g) are anaesthetised with a mixture of Acepromazine (2.8 mg/kg) and Kenamine (112 mg/kg) injected i.p. The rat's abdomen is opened through the midline. The renal arteries and descending aorta are cleaned and, with minimal disruption of blood flow, one kidney is cannulated through the proximal renal artery using a stainless steel 20G blunt-tipped needle attached to Tygon tubing and a peristaltic pump. As soon as the first ligature is complete and perfusion of the kidney starts (10 ml/min) and the kidney is removed from the animal and placed in a constant temperature perfusion chamber. The perfusion pressure is followed by an on-line Statham pressure transducer and changes recorded in a Grass Polygraph.
Administration of Drugs: Neuropeptide Y and other agonists are administered by a single bolus injection (0.1 ml) through an injection port situated about 6 inches from the tip of the needle (approximately 0.3 ml, total volume). Antagonists are infused during 5 min (0.15 ml/min) into the kidney through an injection port situtated before the perfusion pump to allow for good mixing and constant concentration (dilution of 0.15 ml into 10 ml). […]
Results: Using the above experimental procedure we have determined the IC50 for the inhibition of the NPY-induced increase of perfusion pressure for: […]

CC[C@H](C)[C@H](N)C(=O)N[C@@H](CC(N)=O)C(=O)N1CCC[C@H]1C(=O)N[C@H](C(=O)N[C@@H](Cc1ccc(O)cc1)C(=O)N[C@@H](CCCNC(=N)N)C(=O)N[C@@H](CC(C)C)C(=O)N[C@@H](CCCNC(=N)N)C(=O)N[C@@H](Cc1ccc(OCc2c(Cl)cccc2Cl)cc1)C(N)=O)[C@@H](C)CC [Example 4, IleAsnProIleTyrArgLeuArg[O-(2,6-Dichlorobenzyl)-Tyr]-NH2] (H-INPIYRLRY(X1)-NH2)
IC50 [1]: 1400 nM
HEL CELLS % Fluor (c) [2]: 0%
IC50 [2]: 10 nM
HEL CELLS % INHIB (b) [2]: 100%

CC[C@H](C)[C@H](N)C(=O)N[C@@H](CC(N)=O)C(=O)N1CCC[C@H]1C(=O)NC(C)(C)C(=O)N[C@@H](Cc1ccc(O)cc1)C(=O)N[C@@H](CCCNC(=N)N)C(=O)N[C@@H](CC(C)C)C(=O)N[C@@H](CCCNC(=N)N)C(=O)N[C@@H](Cc1ccc(O)cc1)C(N)=O [Example 1, IleAsnProAibTyrAgrLeuArgTyr-NH2] (H-INP[Aib]YRLRY-NH2)
IC50 [1]: 250 nM
HEL CELLS % Fluor (c) [2]: 0%
IC50 [2]: 10 nM
HEL CELLS % INHIB (b) [2]: 100%

CC[C@H](C)[C@H](N)C(=O)N[C@@H](CC(N)=O)C(=O)N1CCC[C@H]1C(=O)N[C@H](C(=O)N[C@@H](Cc1ccc(OCc2c(Cl)cccc2Cl)cc1)C(=O)N[C@@H](CCCNC(=N)N)C(=O)N[C@@H](CC(C)C)C(=O)N[C@@H](CCCNC(=N)N)C(=O)N[C@@H](Cc1ccc(O)cc1)C(N)=O)[C@@H](C)CC [Example 5, IleAsnProIle[O-(2,6-Dichlorobenzyl)Tyr]ArgLeuArgTyr-NH2] (H-INPIY(X1)RLRY-NH2)
IC50 [1]: 50 nM
HEL CELLS % Fluor (c) [2]: 0%
IC50 [2]: 2.5 nM
HEL CELLS % INHIB (b) [2]: 100%

CC[C@H](C)[C@H](N)C(=O)N[C@@H](CC(N)=O)C(=O)N1CC=C[C@H]1C(=O)N[C@H](C(=O)N[C@@H](Cc1ccc(O)cc1)C(=O)N[C@@H](CCCNC(=N)N)C(=O)N[C@@H](CC(C)C)C(=O)N[C@@H](CCCNC(=N)N)C(=O)N[C@@H](Cc1ccc(O)cc1)C(N)=O)[C@@H](C)CC [Example 11, IleAsn(3,4-DehydroPro)IleTyrArgLeuArgTyr-NH2] (H-IN[ΔPro]IYRLRY-NH2)
IC50 [1]: 36 nM
HEL CELLS % Fluor (c) [2]: 0%
IC50 [2]: 10 nM
HEL CELLS % INHIB (b) [2]: 100%

YINLIYRLRY-NH2 [Example 17, TyrIleAsnLeuIleTyrArgLeuArgTyr-NH2]
IC50 [1]: 15 nM
HEL CELLS % Fluor (c) [2]: 10%
IC50 [2]: 0.75 nM
HEL CELLS % INHIB (b) [2]: 100%

CC[C@H](C)[C@H](N)C(=O)N[C@H]1CCC(=O)NC[C@@H](C(=O)N[C@@H](Cc2ccc(O)cc2)C(=O)N[C@@H](CCCNC(=N)N)C(=O)N[C@@H](CC(C)C)C(=O)N[C@@H](CCCNC(=N)N)C(=O)N[C@@H](Cc2ccc(O)cc2)C(N)=O)NC(=O)[C@@H]2CCCN2C(=O)[C@@H](NC(=O)[C@@H](N)[C@@H](C)CC)CCC(=O)NC[C@@H](C(=O)N[C@@H](Cc2ccc(O)cc2)C(=O)N[C@@H](CCCNC(=N)N)C(=O)N[C@@H](CC(C)C)C(=O)N[C@@H](CCCNC(=N)N)C(=O)N[C@@H](Cc2ccc(O)cc2)C(N)=O)NC(=O)[C@@H]2CCCN2C1=O [Example 9, IleGluProDprTyrArgLeuArgTyr-NH2,Cyclic(2,4'),(2',4)-Diamide] (I: H-IEP[Dap]YRLRY-NH2 / II: H-IEP[Dap]YRLRY-NH2; amide I:2-II:4, I:4-II:2)
IC50 [1]: 1 nM
HEL CELLS % Fluor (c) [2]: 0%
IC50 [2]: 0.29 nM
HEL CELLS % INHIB (b) [2]: 100%
IC50 [3]: 0.5 nM

INPIFRLRY-NH2 [Example 10, IleAsnProIlePheArgLeuArgTyr-NH2]
IC50 [1]: 470 nM
HEL CELLS % Fluor (c) [2]: 0%
IC50 [2]: 10 nM
HEL CELLS % INHIB (b) [2]: 100%

CC[C@H](C)[C@H](N)C(=O)N[C@@H](CC(N)=O)C(=O)N1CCC[C@H]1C(=O)N[C@@H](CSSC[C@H](NC(=O)[C@@H]1CCCN1C(=O)[C@H](CC(N)=O)NC(=O)[C@@H](N)[C@@H](C)CC)C(=O)N[C@@H](Cc1ccc(O)cc1)C(=O)N[C@@H](CCCNC(=N)N)C(=O)N[C@@H](CC(C)C)C(=O)N[C@@H](CCCNC(=N)N)C(=O)N[C@@H](Cc1ccc(O)cc1)C(N)=O)C(=O)N[C@@H](Cc1ccc(O)cc1)C(=O)N[C@@H](CCCNC(=N)N)C(=O)N[C@@H](CC(C)C)C(=O)N[C@@H](CCCNC(=N)N)C(=O)N[C@@H](Cc1ccc(O)cc1)C(N)=O [Example 12, (IleAsnProCysTyrArgLeuArgTyr-NH2)2] (I: H-INPCYRLRY-NH2 / II: H-INPCYRLRY-NH2; disulfide I:4-II:4)
IC50 [1]: 5 nM
HEL CELLS % Fluor (c) [2]: 0%
IC50 [2]: 0.5 nM
HEL CELLS % INHIB (b) [2]: 100%
